Measured values published in PubChem BioAssay AID1645887 (National Center for Advancing Translational Sciences (NCATS), 2021).
Several values for one entry are separate records, joined by “and”; a condition that tells them apart may be missing. Identical values can stand only once. Screen size: about 16,000 compounds; about 40 (0.2%) were called active. Not shown: some 1% with an inconclusive outcome. Calls follow the shape of the dose curve; as a rule, active = well fitted activation curve with a large enough effect; inconclusive = small, poorly fitted or top-dose-only effect, or another doubt; inactive = no such curve, though single readings can be large or run the other way. The list shows a part of the results.

Each compound was assayed against Rap guanine nucleotide exchange factor 4 (Homo sapiens) (UniProt Q8WZA2) (assay: Validation qHTS for agonist of cAMP-regulated guanine nucleotide exchange factor 4 (EPAC2)). Settings: EPAC2 Rap1B BODIPY-GDP exchange, fluorescence; activation: hits give high values.
UniProt Q8WZA2, sequence (Q8WZA2 whole entry, looked up): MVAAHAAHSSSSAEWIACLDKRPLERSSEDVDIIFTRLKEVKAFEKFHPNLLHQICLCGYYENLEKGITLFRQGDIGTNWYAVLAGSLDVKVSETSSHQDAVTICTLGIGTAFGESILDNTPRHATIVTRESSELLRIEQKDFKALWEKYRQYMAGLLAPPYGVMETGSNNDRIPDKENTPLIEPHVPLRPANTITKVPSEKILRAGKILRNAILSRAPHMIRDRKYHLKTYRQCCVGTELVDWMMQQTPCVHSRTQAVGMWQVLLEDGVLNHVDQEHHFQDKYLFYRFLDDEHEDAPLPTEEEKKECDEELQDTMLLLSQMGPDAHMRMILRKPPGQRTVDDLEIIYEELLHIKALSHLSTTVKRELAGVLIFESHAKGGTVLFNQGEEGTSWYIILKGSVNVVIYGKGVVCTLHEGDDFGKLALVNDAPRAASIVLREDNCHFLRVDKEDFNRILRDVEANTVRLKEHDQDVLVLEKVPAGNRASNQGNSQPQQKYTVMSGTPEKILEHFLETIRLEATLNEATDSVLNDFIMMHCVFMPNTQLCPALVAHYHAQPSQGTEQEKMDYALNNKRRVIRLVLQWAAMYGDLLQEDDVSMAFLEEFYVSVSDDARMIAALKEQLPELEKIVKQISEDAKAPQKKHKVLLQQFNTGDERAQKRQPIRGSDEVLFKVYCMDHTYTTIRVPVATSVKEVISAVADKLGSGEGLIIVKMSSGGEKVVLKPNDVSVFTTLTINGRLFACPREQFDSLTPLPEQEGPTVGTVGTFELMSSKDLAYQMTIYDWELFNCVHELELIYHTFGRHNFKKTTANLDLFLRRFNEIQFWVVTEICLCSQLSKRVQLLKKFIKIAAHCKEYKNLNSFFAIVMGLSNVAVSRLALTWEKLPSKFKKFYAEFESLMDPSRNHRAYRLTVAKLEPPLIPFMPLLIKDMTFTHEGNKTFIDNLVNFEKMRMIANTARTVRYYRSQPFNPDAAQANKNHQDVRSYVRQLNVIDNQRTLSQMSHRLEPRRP
Summary of the method: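 Signal normalized against 6.5 mM cAMP as agonist control. Mix of EPAC2 (100 nM), RAP1B-BODIPY-GDP (250 nM) and GDP (50 uM) was read kinetically at 480/540 nm, every 5 min over 30 min, after 5 min room-temperature incubation with compound.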
% is scaled to controls: 0 for no effect and ±100 for the full control effect.
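Also: exchange makes BODIPY-GDP fluorescence drop when released from Rap1B; series mostly up to about 150 µM.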

activation, inactive:
CC1=C(/C=C/C(C)=C\C=C\C(C)=C\C(=O)O)C(C)(C)CCC1 -5.12% and -10.8%, CCCN1CCC(=O)N([C@H](CO)CC(C)C)CC1 -26.1%, CCN1CCCC1CNC(=O)c1cnn(-c2nccc(-c3cccs3)n2)c1C(C)C (stereo unspecified) -5.78%, Cc1nc(C)c(C(=O)NCc2nc(-c3cccc(NC(=O)c4ccccn4)c3)oc2C)s1 0.928%, COc1ccc2[nH]cc(CCNc3nc(-c4cccnc4)nc4ccccc34)c2c1 3.69%, N#Cc1cccc(NC(=O)N2CC[C@@]3(CCCN(C(=O)c4cnccn4)C3)C2)c1 -22.3%, CCCCOC(=O)CC(CC(=O)OCCCC)(OC(C)=O)C(=O)OCCCC -26.6%, O=S(=O)(NCc1ccccc1)[C@@H]1CC2C=CC1C2 (stereo partly specified) -30%, COc1ncc2nc(-c3cc(F)cc(F)c3)c(=O)n(C[C@H]3CCCO3)c2n1 -4.05%, CC1CN(CC(=O)N2CCN(Cc3nccn3C)CC2)Cc2cc(Cl)ccc2O1 (stereo unspecified) 4.35%, CC(=O)OCC(=O)[C@@]1(OC(C)=O)[C@@H](C)C[C@H]2[C@@H]3C[C@H](F)C4=CC(=O)C=C[C@]4(C)[C@@]3(F)[C@@H](O)C[C@@]21C 1.66%, O=C(C[n+]1cc(Br)cc2ccccc21)c1ccc(Br)cc1 -18%, O=C(NCCN1CCCCC1)c1ccc(I)cc1 2.44% and 3.63%, CS(=O)(=O)N1CCC[C@@]2(CCN(C(=O)Nc3cccc(C#N)c3)C2)C1 -4.8%, C[n+]1ccc(/C=C/c2ccc3ccccc3c2)cc1 2.09%, COc1cc(OC)c(OC)cc1CN1CCOc2ccc(CN3CCN(C(C)=O)CC3)cc2C1 -18.7%, CCC(Cc1c(I)cc(I)c(O)c1I)C(=O)O (stereo unspecified) -7.22%, CCn1c2ccccc2c2cc(CN3CCOc4ccc(C(O)c5cccnc5)cc4C3)ccc21 (stereo unspecified) -13.2%, CC1(C)Oc2ccc3ccc(=O)oc3c2CC1O (stereo unspecified) -16.1%, CC[C@@H](CO)NCCN[C@@H](CC)CO -2.14%, CCCCCCCCCCCCCC(=O)O[C@H](CC(=O)O)C[N+](C)(C)C -39.3%, O=c1cc(-c2ccccc2)oc2c1ccc1ccccc12 4.88%, CC(C)CCCC(C)C1CCC2C3CC=C4CC(=O)CC[C@@]4(C)C3CC[C@@]12C (stereo partly specified) -16.9%, CC(CN(C)C)C(C)(O)Cc1ccc(Cl)cc1 (stereo unspecified) -17.4%, CCCN1CCC(=O)N([C@H](COc2ccccc2)c2ccccc2)CC1 -26.9%, Cn1cc(-c2nc3cnc(Oc4ccccc4)nc3n(C)c2=O)c2ccccc21 -6.11%, C[C@]1(Cn2ccnn2)[C@H](C(=O)O)N2C(=O)C[C@H]2S1(=O)=O 10.3%, CN(C)C/C=C(\c1ccc(Br)cc1)c1cccnc1 -9.15%, Cc1ccccc1-c1ccc(CN2CCc3nnc(CNC(=O)c4ccccn4)n3CC2)cc1 -18%, CN(C)C(=O)CNC(=O)Cc1ccccc1 8.69%, CN1c2ccccc2-c2ccccc2S1(=O)=O -12.6%, COc1cccc(Cn2c(=O)cnc3cnc(Oc4cccc(Cl)c4)nc32)c1 7.98%, COC(=O)C1CCCCN1Cc1ccc2c(c1)CN(Cc1cn[nH]c1-c1ccc(F)cc1)CCO2 (stereo unspecified) -0.549%, CCCN(CCc1ccccc1)C1CCc2c(O)cccc2C1 (stereo unspecified) 2.51% and -18.6%, CNc1ccnc(-c2ccccc2C(F)(F)F)n1 -9.95%, N.N.N.N.N.N.N.N.N.N.N.N.N.N.O.O.[Ru+4].[Ru+5].[Ru+5] -65.5%, CC1=CC(=O)CC(C)(C)C1(O)/C=C/C(C)=C\C(=O)O (stereo unspecified) -26.9% and -2.51%, O=C(Nc1cccc(F)c1)N1CCC2(CCNCC2)CC1 -17.6%, c1ccc(C(c2ccccc2)N2CC3(CCNCC3)C2)cc1 -10.3%, O=C(c1ccncc1)N1CCC2(CC1)CN(c1ccncc1)C2 -1.2%, CN1CC[C@@]2(CCCN(C(=O)c3cccc(F)c3)C2)C1 -13.9%, COc1cccc(Nc2ncc3nc(-c4cn(C)c5ccccc45)c(=O)n(C[C@H]4CCCO4)c3n2)c1 -15.4%, O=c1c(-c2cc(F)cc(F)c2)nc2cncnc2n1Cc1ccc(F)cc1 -5.37%, O=C(O)C[C@H]1c2cc(F)ccc2S(=O)(=O)N1Cc1ccccc1 0.235%, Cc1cc(O)c2c(O)c3c(O)cccc3cc2c1 -14%, C=CCSCC1Nc2cc(Cl)c(S(N)(=O)=O)cc2S(=O)(=O)N1 (stereo unspecified) -20%, CN1CC[C@@]2(CCCN(C(=O)c3cc(C(F)(F)F)cc(C(F)(F)F)c3)C2)C1 11.2%, COCCNc1nc(-c2ccc(N(C)C)cc2)nc2ccccc12 -6.53%, COc1ccccc1CCn1c(=O)c(-c2ccc(Cl)cc2)nc2cncnc21 1.92%, COc1ccc(CN2CCOc3ccc(CN4CCC(Oc5cccnc5)CC4)cc3C2)cc1 -25.6%, COc1ccccc1C(=O)N[C@@H]1c2ccccc2C2(CCN(Cc3nc(C(C)C)cs3)CC2)[C@H]1O -11.4%, Cc1noc(C)c1-c1cc(NCCN2CCOCC2)ncn1 -3.47%, COc1ccc(CN2CCOc3c(O)cc(-c4cc(C)c5ccc(F)cc5n4)cc3C2)c(O)c1 -16%, Cc1ccc(-n2nc(C(C)(C)C)cc2NC(=O)Nc2ccc(OCCN3CCOCC3)c3ccccc23)cc1 2.91%, O=c1c(-c2ccc(O[C@@H]3O[C@H](CO)[C@@H](O)[C@H](O)[C@H]3O)cc2)coc2cc(O)cc(O)c12 -2.38%, COC(=O)C1N2C(=O)N(C)[C@H](C(=O)OC)[C@H]2SC1(C)C (stereo partly specified) -11.8%
